Measurements taken from publication PMC12136788.
The other results are listed elsewhere or left out.

B1: 118867020_118872158_2107_CDS_ENSG00000133835_ENST00000256216|human|control|control (ssRNA)
RNA: GGGAGUUCUACAGUCCGACGAUCGCCUUGGUACACUUUUCCAGAACCACUUUUCAGGUCAAUAGUCCACUUAGCCCCAAUAUUUCCGCCUUUGGUUAUAUGCCACUCAAAUACAGCAUUUACUUUCUUCACCACCUCAGGCCCCAACAGAGGAUUGAGCAUCA
B2: chr1:244855233:244855234:+_ENSG00000121644_ENST00000302550|hu_mus|hu_hu_hu_mus_True|48_98 (ssRNA)
RNA: GGGAGUUCUACAGUCCGACGAUCCAUCAGAUGGUAGGCAUUGCCUUUAUACUCUUUCCCCAGUUCUUCUACAAUUUUCUCUAUAUCAUCUUCUAGGAAGUCCGUACUUCCUAGAACAACAGCUUCUUUAAAUUUAAAUGUUUCCAACAGAGGAUUGAGCAUCA
B3: chr11:35642274:35642275:-_ENSMUSG00000018848_ENSMUST00000018992|mus_hu|FALSE|FALSE (ssRNA)
RNA: GGGAGUUCUACAGUCCGACGAUCCUGCUGACUUGGUGUCACUAGCAGAGGAGGAUUUUCCAAAUCUGGAUAUGCAGCCUUAAUUGCAUGACCAAAGACCUCUUGUAGGCGGCUAAUAAUGUUAAUCAUAUUUUUAGUUGGUUUCAACAGAGGAUUGAGCAUCA
B4: chr2:237995794:237995795:+_ENSG00000198612_ENST00000392008|hu_hu|FALSE|FALSE (ssRNA)
RNA: GGGAGUUCUACAGUCCGACGAUCGUAUUCUUUUCCAAAGAUAUCUUGCAUUAUUCAUGUCAUUAUGGAGCAAAUAUAAAGCUAGAAGCUGACCAUACACUGGGGGUGUAGCAAUUCCUCCAGGGGCUAUUAUAAGAAACAAAUCAACAGAGGAUUGAGCAUCA
B5: chr2:44436386:44436387:+_ENSG00000138032_ENST00000378551|hu_mus|FALSE|FALSE (ssRNA)
RNA: GGGAGUUCUACAGUCCGACGAUCCUCUGAAUCUCUCUUCACGGCUUCCUCUGAGACCUUGGGGGCAUUUGAAAAGCAAACUAAUACAACACUCAUGUUAUCUCGACUUCCCUUAUGUAAACAAGUGUCCACUACCCAAUUGCACAACAGAGGAUUGAGCAUCA
B6: chr16:49913422:49913423:+_ENSMUSG00000055447_ENSMUST00000084838|mus_hu|FALSE|FALSE (ssRNA)
RNA: GGGAGUUCUACAGUCCGACGAUCAAAAGGACAAAUGGUGUCACUGUGAGAACACACAAUAAAUAAAACUGAAUGGAAGAGUCAACAGCAGAAACUGGGAUCAGGGAGUAAAAAGCAUAUUAUGGGACAAAACAGAUACAUGAUCAACAGAGGAUUGAGCAUCA
B7: chr19:16212804:16212805:+_ENSG00000167460_ENST00000300933|hu_mus|hu_hu_hu_mus_False|78_88 (ssRNA)
RNA: GGGAGUUCUACAGUCCGACGAUCAACAAUUCUGGAGUGAAGGAAAGCAUCAAGGAUCAAUUAAUUAAAAGCUCAGUCAGAAGGCACAUGGGCAACAAUGAUCACCCCAGCAUUCUCGCUUGGAAUGCUUAAAGACAAUCUGUUCAACAGAGGAUUGAGCAUCA
B8: 153512049_153512169_4045_3pUTR_ENSG00000196504_ENST00000410080|human|control|control (ssRNA)
RNA: GGGAGUUCUACAGUCCGACGAUCUUUUUUUUUUAGACAAGGAUAUUGCAACUAUCACUUAAAGUCUGGUGGCACAUUCUUUAGUAGGUCCUUAAGGCAAUAUAUUUAAAUUAAUUUACAAUUUGAUUUGAUGUUAAAGUUUUUCAACAGAGGAUUGAGCAUCA
B9: chr9:100883651:100883652:-_ENSG00000106789_ENST00000375077|hu_hu|motif|central (ssRNA)
RNA: GGGAGUUCUACAGUCCGACGAUCGGGUAUGGAAUAAGGAGAUGAGAGCAUGCUCUGCCAACUGGCUGGGACCUGAAUGUGCGGGGCAAGUUCCACUACAUCAGCUCAAGAACAUAAACAAAAAUGUAAUUUAAAAAACAGAUGCAACAGAGGAUUGAGCAUCA
B10: chr2:32641123:32641124:+_ENSG00000115760_ENST00000421745|hu_hu|FALSE|FALSE (ssRNA)
RNA: GGGAGUUCUACAGUCCGACGAUCAGUGCCCUCCUUUUUGGGAGGCUCCACUUUGGCCAAAAUUUCAAAGUUUGAAAGAUCUAGUAUUUUUACAUAUCCUCCCUGAGUGGUUAUUACCAGGUGUCCAAGAGUAGAAAUGUCAGACAACAGAGGAUUGAGCAUCA
B11: chr5:145543945:145543946:-_ENSG00000133706_ENST00000545646|hu_hu|hu_hu_hu_mus_True|78_108 (ssRNA)
RNA: GGGAGUUCUACAGUCCGACGAUCCUGAAUAGCCAGUGGUGGGAAAUAAUCAAGCCAAUGUUCUGCUUCAGAAAACUUCACUAUGUCGUCAUCAGAGAGCCCAAGGGAUUUCAUAAUGUCCCACUGGUACUUAGAAGAUCCUGCCAACAGAGGAUUGAGCAUCA
B12: chr8:95500983:95500984:-_ENSG00000164944_ENST00000437199|hu_hu|hu_hu_hu_mus_True|1_58 (ssRNA)
RNA: GGGAGUUCUACAGUCCGACGAUCAGAACACAUCUAUCGAGUAAAGGACCGUACAUGACGGCCUCUACCACUGCCUCCCACUAACAACUUUCCUCUCGAGCCUCCACUGCCGCUAUUUGUACUAGCCCAGGACGGUCCCAAGUCCAACAGAGGAUUGAGCAUCA
B13: chr12:86311719:86311720:-_ENSMUSG00000042350_ENSMUST00000043169|mus_mus|FALSE|FALSE (ssRNA)
RNA: GGGAGUUCUACAGUCCGACGAUCGGCUGCGGCGUGAAGAAAAACGUUACCCGAACGGGGGCUGCAACGUGGCCAAGUCCUAGUUCUGGGGUCCGAGGAAGCAGCGGCCUCAUCCAGCACAAAUCCUACCCUCCACCCGCCCCCCAACAGAGGAUUGAGCAUCA
B14: chr5:52541547:52541548:-_ENSMUSG00000029169_ENSMUST00000031061|mus_hu|FALSE|FALSE (ssRNA)
RNA: GGGAGUUCUACAGUCCGACGAUCUACUGAGACAGAAGAUUGUGUCUACAUAAGCACAAGUUGUAACAUUUCACAACUUCUAAAAGGAAUGUCAACAAUUACAACGAUCAUGCAUACCAUGGUCGAUAAUCACAUUUUAGAAGCCAACAGAGGAUUGAGCAUCA
B15: 63393171_63394198_5434_CDS_ENSMUSG00000030451_ENSMUST00000076226|mouse|control|control (ssRNA)
RNA: GGGAGUUCUACAGUCCGACGAUCUCCCGCCGGGUUCUCAUUGGUAAUGGUUUGUAGGGGAACAGGCUGGAUACCCAGCUCUUUAAACCUGGCACUUGCAUCCAUCAGAACAGAUCGAAUAUUCUGAACUGCCCAAGCAUACAGCAACAGAGGAUUGAGCAUCA
B16: chr13:81889239:81889240:+_ENSMUSG00000051098_ENSMUST00000057598|mus_hu|FALSE|FALSE (ssRNA)
RNA: GGGAGUUCUACAGUCCGACGAUCCAUGGCAAAAGUAGAAACUUUGUGACAUAUCCCAGCUUUUGAAAUAUAGUUAGAAGCCAAUCGAAAAAGCCUUUCAGCACCAAAGGUAUUGAAGUGCCCAGGAAGCACCUUCUCUACCAGCAACAGAGGAUUGAGCAUCA
B17: chr3:49547525:49547526:-_ENSMUSG00000037892_ENSMUST00000035931|mus_mus|FALSE|FALSE (ssRNA)
RNA: GGGAGUUCUACAGUCCGACGAUCGUUCAUAUGCUAAAAAUACAAGCAAAACUGUGAUAGCAUGCACAAGAGACAAAAGCUAAAGGUGAAUAAUUAUAGCCAAAAAAAGAGAGACAAUGCAGUCGAUACAAAUGUUCAAGUAUGCAACAGAGGAUUGAGCAUCA
B18: chr1:60041781:60041782:+_ENSMUSG00000041040_ENSMUST00000036540|mus_hu|mus_mus_mus_hu_False|58_68 (ssRNA)
RNA: GGGAGUUCUACAGUCCGACGAUCAAGUUUACAAUAGUAAAGUAAAUGCAGUAGUGGCAAAUUUUCUUUACUUUAGUUUCCUAAAAGAAAAUCUUUAUAACCCAGUCCUAGUCUUGGACAUAGUGAAAGCUAUAAAUUCUGACUCAACAGAGGAUUGAGCAUCA
B19: chr11:13408652:13408653:+_ENSG00000133794_ENST00000403290|hu_mus|motif|central (ssRNA)
RNA: GGGAGUUCUACAGUCCGACGAUCACUUCUUUGUAGUGUAAAAACACCAUACAUCUGAAAUGACCAUUUUGCAUAUAAAAGCGGCCAAUGAUGCUUCUGUGCACAAUGAUUAAAAAAUUCAACACAAACAAAAUCCAAAAUAUACAACAGAGGAUUGAGCAUCA
B20: chr5:77764768:77764769:+_ENSMUSG00000029250_ENSMUST00000031167|mus_hu|FALSE|FALSE (ssRNA)
RNA: GGGAGUUCUACAGUCCGACGAUCGACACCAAGGAUCAUUGAGGGAUGAAUCUCACAGUGUGUAUAUGUGGAACAAUAAGCUACUUCUUUCUCCUGUAAAUCAUCUGGAGUCAUUGCAAGCAUCACUGUUUCUUCUUCCAGGGUCAACAGAGGAUUGAGCAUCA
B21: 54240379_54240499_3742_CDS_ENSMUSG00000061603_ENSMUST00000095737|mouse|control|control (ssRNA)
RNA: GGGAGUUCUACAGUCCGACGAUCUUGAUCAAGGUCGUUGGAUUCUUCAUGCACACUAAUGAGUUUGUUACUUAUGUCUGUCUCAUCCCAUUCCAGGGCAUCCUCACUCAUUCCAUUCAGGUCCAUCAAGCCAGGGUCAAUCACCAACAGAGGAUUGAGCAUCA
B22: chr7:141445308:141445309:+_ENSG00000106028_ENST00000265304|hu_hu|hu_hu_hu_mus_False|28_48 (ssRNA)
RNA: GGGAGUUCUACAGUCCGACGAUCUAUGAUUGUUGUUGCUUGCCGCCUCACAUUGUUUUUAUCCAUGUACUCGCCAUAGUCCACUUUCCCUUCCAAAAAUAUACGAGACCCCUUUUUCACAUACUGAUAUGCCACAUCUCUGAGCAACAGAGGAUUGAGCAUCA

Target: T1, UNK ZnF1-3 (human, UniProt Q9C0B0 31-174)
T1 sequence: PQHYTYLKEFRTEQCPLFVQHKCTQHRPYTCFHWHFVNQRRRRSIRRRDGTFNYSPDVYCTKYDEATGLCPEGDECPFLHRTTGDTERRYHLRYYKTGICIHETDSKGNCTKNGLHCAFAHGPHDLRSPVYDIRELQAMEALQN
Assay: nsRBNS (natural sequence RNA bind-n-seq); RBNS binding buffer (assumed for nsRBNS): 25 mM Tris pH 7.5, 150 mM KCl, 3 mM MgCl2, 0.01% Triton X-100, 500 ug/ml BSA, 20 U/ml SUPERase-In, 4 C; UNK is unkempt and MSI1 is Musashi-1; names of the RNAs are library labels; protein concentration not given here; high values mean tight binding

Q: For B1, which binding signal is on record?
A: 0.938 enrichment R

Q: Which binding signal does the source give for B2 here?
A: 1.12 enrichment R

Q: Which binding signal does the source give for B3 here?
A: 0.822 enrichment R

Q: Which binding signal does the source give for B4 here?
A: 1.09 enrichment R

Q: B5 was tested. Which binding signal did it give?
A: 0.993 enrichment R

Q: With B6 as the binder, how does the binding signal read?
A: 2.63 enrichment R

Q: How did the binding signal turn out when B7 was run?
A: 1.54 enrichment R

Q: B8 was tested. Which binding signal did it give?
A: 2.98 enrichment R

Q: For B9, which binding signal is on record?
A: 3.22 enrichment R

Q: With B10 as the binder, how does the binding signal read?
A: 0.986 enrichment R

Q: Which binding signal does the source give for B11 here?
A: 1.22 enrichment R

Q: How did the binding signal turn out when B12 was run?
A: 1.13 enrichment R

Q: With B13 as the binder, how does the binding signal read?
A: 1.28 enrichment R

Q: For B14, which binding signal is on record?
A: 0.996 enrichment R

Q: Which binding signal does the source give for B15 here?
A: 1.29 enrichment R

Q: For B16, which binding signal is on record?
A: 1.21 enrichment R

Q: How did the binding signal turn out when B17 was run?
A: 1.64 enrichment R

Q: How did the binding signal turn out when B18 was run?
A: 0.609 enrichment R

Q: Which binding signal does the source give for B19 here?
A: 0.754 enrichment R

Q: B20 was tested. Which binding signal did it give?
A: 1.2 enrichment R

Q: Which binding signal does the source give for B21 here?
A: 0.776 enrichment R

Q: How did the binding signal turn out when B22 was run?
A: 0.835 enrichment R
